20 molecules from paper PMC9911399, “Two distinct binding modes provide the RNA-binding protein RbFox with extraordinary sequence specificity” can be followed below.

T1: RBFOX1 RRM RbFoxmut (Fox-RRM*) (Homo sapiens, UniProt Q9NWB1 109-208, R118D;E147R;N151S;E152T)
T1 sequence: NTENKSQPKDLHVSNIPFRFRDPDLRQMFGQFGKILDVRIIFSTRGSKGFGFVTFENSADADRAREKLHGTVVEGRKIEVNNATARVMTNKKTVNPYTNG

B1: GGACGAG (DNA:RNA)
RNA: GGGAGACCGGAAUUCAGAUUGUCCGGACGAGUUAAAUCCCGUCGUAGCCACCA
DNA 1: CAATCTGAATTCCGGTCTCCC
DNA 2: TGGTGGCTACGACGGGATT
B2: AGCGAGA (DNA:RNA)
RNA: B1 RNA with G25A, A27C, C28G, G29A, A30G, G31A
DNA 1: CAATCTGAATTCCGGTCTCCC
DNA 2: TGGTGGCTACGACGGGATT
B3: CCUUUCU (DNA:RNA)
RNA: GGGAGACCGGAAUUCAGAUUGUCCCCUUUCUUUAAAUCCCGUCGUAGCCACCA
DNA 1: CAATCTGAATTCCGGTCTCCC
DNA 2: TGGTGGCTACGACGGGATT
B4: UACUUUA (DNA:RNA)
RNA: B3 RNA with C25U, C26A, U27C, C30U, U31A
DNA 1: CAATCTGAATTCCGGTCTCCC
DNA 2: TGGTGGCTACGACGGGATT
B5: CUUUACC (DNA:RNA)
RNA: B3 RNA with C26U, U29A, U31C
DNA 1: CAATCTGAATTCCGGTCTCCC
DNA 2: TGGTGGCTACGACGGGATT
B6: CUAGUGA (DNA:RNA)
RNA: B3 RNA with C26U, U27A, U28G, C30G, U31A
DNA 1: CAATCTGAATTCCGGTCTCCC
DNA 2: TGGTGGCTACGACGGGATT
B7: CAAGAUC (DNA:RNA)
RNA: B3 RNA with C26A, U27A, U28G, U29A, C30U, U31C
DNA 1: CAATCTGAATTCCGGTCTCCC
DNA 2: TGGTGGCTACGACGGGATT
B8: UAUCACU (DNA:RNA)
RNA: B3 RNA with C25U, C26A, U28C, U29A
DNA 1: CAATCTGAATTCCGGTCTCCC
DNA 2: TGGTGGCTACGACGGGATT
B9: GGCUCCU (DNA:RNA)
RNA: B3 RNA with C25G, C26G, U27C, U29C
DNA 1: CAATCTGAATTCCGGTCTCCC
DNA 2: TGGTGGCTACGACGGGATT
B10: AACAUCG (DNA:RNA)
RNA: B3 RNA with C25A, C26A, U27C, U28A, U31G
DNA 1: CAATCTGAATTCCGGTCTCCC
DNA 2: TGGTGGCTACGACGGGATT
B11: CGCGUGU (DNA:RNA)
RNA: B3 RNA with C26G, U27C, U28G, C30G
DNA 1: CAATCTGAATTCCGGTCTCCC
DNA 2: TGGTGGCTACGACGGGATT
B12: ACCCCCC (DNA:RNA)
RNA: B3 RNA with C25A, U27C, U28C, U29C, U31C
DNA 1: CAATCTGAATTCCGGTCTCCC
DNA 2: TGGTGGCTACGACGGGATT
B13: CGGCCGG (DNA:RNA)
RNA: B1 RNA with G25C, A27G, G29C, A30G
DNA 1: CAATCTGAATTCCGGTCTCCC
DNA 2: TGGTGGCTACGACGGGATT
B14: GGGUUUA (DNA:RNA)
RNA: B3 RNA with C25G, C26G, U27G, C30U, U31A
DNA 1: CAATCTGAATTCCGGTCTCCC
DNA 2: TGGTGGCTACGACGGGATT
B15: AGAUCCA (DNA:RNA)
RNA: B3 RNA with C25A, C26G, U27A, U29C, U31A
DNA 1: CAATCTGAATTCCGGTCTCCC
DNA 2: TGGTGGCTACGACGGGATT
B16: GUGGCUU (DNA:RNA)
RNA: B3 RNA with C25G, C26U, U27G, U28G, U29C, C30U
DNA 1: CAATCTGAATTCCGGTCTCCC
DNA 2: TGGTGGCTACGACGGGATT
B17: UUCUAUU (DNA:RNA)
RNA: B3 RNA with C25U, C26U, U27C, U29A, C30U
DNA 1: CAATCTGAATTCCGGTCTCCC
DNA 2: TGGTGGCTACGACGGGATT
B18: CCUUGAA (DNA:RNA)
RNA: B3 RNA with U29G, C30A, U31A
DNA 1: CAATCTGAATTCCGGTCTCCC
DNA 2: TGGTGGCTACGACGGGATT
B19: UUGUAUA (DNA:RNA)
RNA: B3 RNA with C25U, C26U, U27G, U29A, C30U, U31A
DNA 1: CAATCTGAATTCCGGTCTCCC
DNA 2: TGGTGGCTACGACGGGATT
B20: CAGGCCU (DNA:RNA)
RNA: B3 RNA with C26A, U27G, U28G, U29C
DNA 1: CAATCTGAATTCCGGTCTCCC
DNA 2: TGGTGGCTACGACGGGATT

Numbering of substitutions follows the chain as printed; changes in the protein carry UniProt numbers. This is one part of the list.

In the assay the target is T1, RBFOX1 RRM RbFoxmut (Fox-RRM*). As to the kind of experiment: EMSA; HiTS-Eq, 1 nM pool, 10 min; buffer printed only for the single-RNA assays: 10 mM Tris pH 7.5, 150 mM NaCl, 3.4 mM EDTA, 0.001% NP-40, 30 C. Conditions: tags: His6 N-terminal (pET28a); label: 5' 32P. An outline of the steps:
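A pool of RNA with 7 randomized nucleotides, 5′-radiolabelled and with DNA-annealed flanks, was equilibrated at 1 nM for 10 min in 50 µL with purified RbFox RRM, wild type or mutant, across increasing protein concentrations. Free RNA was separated by 8% native PAGE, excised, reverse-transcribed, barcoded by PCR and sequenced. Relative association constants were obtained from read-count changes of each RNA species versus the control reaction and normalised to the cognate motif.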
For the molecule B1, the binding signal was 0.106 KA relative to UGCAUGU.
B2: the binding signal was 0.119 KA relative to UGCAUGU.
With B3 the figure was 0.0619 KA relative to UGCAUGU; with B4, 0.12 KA relative to UGCAUGU; with B5, 0.116 KA relative to UGCAUGU.
With B6 the figure was 0.074 KA relative to UGCAUGU.
In the case of B7, the binding signal is 0.0747 KA relative to UGCAUGU.
Turning to B8, the binding signal is 0.069 KA relative to UGCAUGU.
Next, B9: 0.0894 KA relative to UGCAUGU; B10: 0.0925 KA relative to UGCAUGU.
As for B11, the binding signal was 0.184 KA relative to UGCAUGU.
With B12 the figure was 0.0509 KA relative to UGCAUGU.
With B13 the figure was 0.0905 KA relative to UGCAUGU; with B14, 0.143 KA relative to UGCAUGU; with B15, 0.0729 KA relative to UGCAUGU.
Next, B16: 0.102 KA relative to UGCAUGU; B17: 0.0916 KA relative to UGCAUGU.
With B18, the binding signal was 0.102 KA relative to UGCAUGU.
Next, B19: 0.208 KA relative to UGCAUGU; B20: 0.0816 KA relative to UGCAUGU.
